# Data reported in publication PMC4336329 (PLoS ONE, 2015).
# The whole screen tested about 310,000 compounds, of which about 2,200 (0.71%) showed an effect of 50% or more. The effect is printed as a negative number. The list shows a part of the results.
# Target: human ether-à-go-go-related gene (hERG) potassium channel (human, UniProt Q12809)
# Assay: primary screen, population patch clamp on CHO cells stably expressing hERG
# human ether-à-go-go-related gene (hERG) potassium channel, sequence (Q12809 whole entry, looked up): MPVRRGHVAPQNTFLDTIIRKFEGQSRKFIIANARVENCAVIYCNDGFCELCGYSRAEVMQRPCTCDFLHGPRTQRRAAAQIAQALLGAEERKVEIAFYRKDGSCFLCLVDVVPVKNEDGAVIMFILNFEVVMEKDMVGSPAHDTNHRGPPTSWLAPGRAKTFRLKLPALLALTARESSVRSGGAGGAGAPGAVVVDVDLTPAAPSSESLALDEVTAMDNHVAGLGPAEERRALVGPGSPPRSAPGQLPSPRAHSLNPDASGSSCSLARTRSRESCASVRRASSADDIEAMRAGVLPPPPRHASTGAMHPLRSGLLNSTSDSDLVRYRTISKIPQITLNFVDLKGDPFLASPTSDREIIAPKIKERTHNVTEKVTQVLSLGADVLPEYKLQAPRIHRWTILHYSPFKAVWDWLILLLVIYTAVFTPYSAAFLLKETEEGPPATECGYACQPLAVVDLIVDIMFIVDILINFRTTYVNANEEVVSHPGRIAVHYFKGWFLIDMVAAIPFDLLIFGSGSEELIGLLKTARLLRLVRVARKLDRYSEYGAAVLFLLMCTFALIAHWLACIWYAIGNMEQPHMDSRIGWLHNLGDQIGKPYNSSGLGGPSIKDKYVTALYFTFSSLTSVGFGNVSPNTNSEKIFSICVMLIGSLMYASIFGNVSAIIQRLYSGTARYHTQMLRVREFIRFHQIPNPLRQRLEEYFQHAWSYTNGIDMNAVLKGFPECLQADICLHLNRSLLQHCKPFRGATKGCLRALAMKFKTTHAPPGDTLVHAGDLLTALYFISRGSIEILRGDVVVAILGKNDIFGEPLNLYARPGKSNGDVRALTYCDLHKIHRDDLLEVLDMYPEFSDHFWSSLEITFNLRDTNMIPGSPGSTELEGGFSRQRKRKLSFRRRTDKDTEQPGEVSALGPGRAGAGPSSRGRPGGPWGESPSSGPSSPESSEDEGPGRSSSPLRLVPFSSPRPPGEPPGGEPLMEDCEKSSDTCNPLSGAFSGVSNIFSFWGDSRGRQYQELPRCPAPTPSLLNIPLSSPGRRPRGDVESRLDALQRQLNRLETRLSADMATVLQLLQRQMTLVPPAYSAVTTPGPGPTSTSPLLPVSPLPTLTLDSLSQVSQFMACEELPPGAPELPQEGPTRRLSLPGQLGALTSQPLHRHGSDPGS
row,Structure (SMILES),"hERG current change (%, negative = inhibition) at 1uM"
1,COc1ccc(CCNC(=O)CN2C(=O)c3ccccc3S2(=O)=O)cc1OC,-1.89%
2,Cc1c(O)ccc2c(CC(=O)N[C@@H](Cc3ccc(O)cc3)C(=O)O)cc(=O)oc12,11.4%
3,O=c1cc(-c2cccc([N+](=O)[O-])c2)[nH][nH]1,8.78%
4,O=C(CC(O)(C(F)(F)F)C(F)(F)F)Nc1ccc(Cl)c(Cl)c1,8.81%
5,O=C(CSc1ccc(F)cc1)N1CCOCC1,9.84%
6,O=C(c1ccc(C(F)(F)F)cc1)C1CCCN(C(=O)CN2C(=O)CSC2=O)C1 (stereo not drawn),10.2%
7,CCCCn1c(N)c(-c2nc3ccccc3o2)c2c([N+](=O)[O-])nn(C)c(=O)c21,10.8%
8,CCN(CC)CC(O)c1ccc(C2CCCC2)cc1.Cl (stereo not drawn),-18.3%
9,COc1cccc(C2CC(c3ccc(Cl)cc3Cl)Nc3nc(N)nn32)c1 (stereo not drawn),6.04%
10,CC(=O)N(C)c1nnc(-c2ccccn2)s1,5.63%
11,N#Cc1cnn(-c2ncnc3sc4c(c23)CCCC4)c1N,3.71%
12,Cc1ccc2nc(CSc3nnc(Cc4cccs4)n3C3CCCCC3)cc(=O)n2c1,-1.37%
13,CCc1ccc(NC(=O)N2CCC(c3ccccc3)C2)cc1 (stereo not drawn),7.15%
14,CCOC(=O)C1(Cc2ccccc2)CCN(C2Cc3ccccc3C2)CC1,-11.3%
15,O=C(COC(=O)/C=C/c1cccc(C(F)(F)F)c1)NC1CCS(=O)(=O)C1 (stereo not drawn),5.12%
16,Cc1cc(C)c2c(-n3cccc3)c(NC(=O)OC(C)C)sc2n1,6.62%
17,O=C(c1cccnc1)C1CCCN(Cc2nc(Cc3ccccc3F)no2)C1 (stereo not drawn),5.1%
18,Cc1cccc2c1c(N=NC(N)=S)c(O)n2C1OC(CO)C(O)C(O)C1O (stereo not drawn),11.7%
19,CC1(C)Cc2c(C#N)c(OCC(=O)c3ccc(Cl)cc3)nc(-c3ccco3)c2CO1,10.6%
20,CCC(=O)N=c1sc2c(OC)ccc(OC)c2n1C,14.9%
21,O=C(/C=C\c1cccs1)c1c(O)ccc2ccc(=O)oc12,17.7%
22,COc1cccc(CN2CCNC(=O)C2CC(=O)O)c1OC (stereo not drawn),15.7%
23,COc1ccccc1NS(=O)(=O)c1ccc(C(=O)N2CCCCCCC2)cc1,6.84%

row,Structure (SMILES),"hERG current change (%, negative = inhibition) at 1uM"
1,CCCCC(=O)N/N=C(/C)C1=C(C)C(C)(C)OC1=O,11.8%
2,CCn1nnc(C(=O)O)c1C(=O)O,6.59%
3,CC(C)=CC(=O)OCC(=O)Nc1nc(C)c(Cl)cc1Cl,8.61%
4,COc1cccc(CN(C(=O)c2cc3ccccc3oc2=O)C2CC2)c1,-0.672%
5,Cc1nc2c(C(=O)Nc3ccc(N4CCCC(O)C4)cc3)snc2c(=O)[nH]1 (stereo not drawn),11.8%
6,COc1ccc(C/C(N)=N/O)cc1,9.2%
7,Cc1ccnc(N2CCCC(C(=O)Nc3cccc(C)c3C)C2)n1 (stereo not drawn),14.2%
8,O=C1c2ccccc2C2(c3ccc(Cl)cc3)NCCN12 (stereo not drawn),19.7%
9,CC(C)(C)NC(=O)[C@]1(C)CCC[C@@]2(C)C3CC[C@@]4(C)C[C@]3(CCC21)CC4=O (stereo partly drawn),1.96%
10,O=C(NCc1ccccn1)c1cccc(NS(=O)(=O)c2cccc(F)c2)c1,6.56%
11,CCc1cccc2c(C#N)cn(CCOc3ccccc3OC)c12,1.7%
12,CN1CCN(C2=C(Cl)C(=O)N(c3ccc(Cl)c(Cl)c3)C2=O)CC1,16.5%
13,COC(CNC(=O)c1ccc2c(c1)ncn2-c1ccc(F)c(F)c1)OC,-5.49%
14,O=C(COc1ccc(Cl)cc1Cl)NN1C(=O)C2C3C=CC(C3)C2C1=O (stereo not drawn),1.31%
15,O=C(Nc1cccc([N+](=O)[O-])c1)C1C2CCCCC21 (stereo not drawn),16.2%
16,CCc1ccc(OC(=O)Cc2ccc(OC)c(S(=O)(=O)N3CCOCC3)c2)cc1,6.4%
17,O=C1C(Cl)=C(N2CCCCCC2)C(=O)N1c1ccccc1,6.03%
18,CC(=O)Oc1c(S(=O)(=O)c2ccc(C)cc2)c(C)nn1C(C)(C)C,8.56%
19,COc1ccccc1NC(=O)C1=C(C)NC(=O)NC1c1cc(C)cs1 (stereo not drawn),6.28%
20,O=C(NC(Cc1c[nH]c2ccccc12)C(=O)OCC(=O)c1cccc2ccccc12)c1cccs1 (stereo not drawn),0.711%
21,COC(=O)c1ccc(NC(=O)c2cc(-c3ccccn3)nc3ccccc23)cc1,11.1%
22,Cc1cc(C)cc(N(C(=O)c2sc(C)nc2C)C(C(=O)NCc2ccco2)c2ccccc2)c1 (stereo not drawn),15.5%
